{
  "source": "the supplement of paper PMC8728848",
  "binders": {"B1": {"name": "MMR (Homo sapiens), P22897 (protein)", "chain": "MRLPLLLVFASVIPGAVLLLDTRQFLIYNEDHKRCVDAVSPSAVQTAACNQDAESQKFRWVSESQIMSVAFKLCLGVPSKTDWVAITLYACDSKSEFQKWECKNDTLLGIKGEDLFFNYGNRQEKNIMLYKGSGLWSRWKIYGTTDNLCSRGYEAMYTLLGNANGATCAFPFKFENKWYADCTSAGRSDGWLWCGTTTDYDTDKLFGYCPLKFEGSESLWNKDPLTSVSYQINSKSALTWHQARKSCQQQNAELLSITEIHEQTYLTGLTSSLTSGLWIGLNSLSFNSGWQWSDRSPFRYLNWLPGSPSAEPGKSCVSLNPGKNAKWENLECVQKLGYICKKGNTTLNSFVIPSESDVPTHCPSQWWPYAGHCYKIHRDEKKIQRDALTTCRKEGGDLTSIHTIEELDFIISQLGYEPNDELWIGLNDIKIQMYFEWSDGTPVTFTKWLRGEPSHENNRQEDCVVMKGKDGYWADRGCEWPLGYICKMKSRSQGPEIVEVEKGCRKGWKKHHFYCYMIGHTLSTFAEANQTCNNENAYLTTIEDRYEQAFLTSFVGLRPEKYFWTGLSDIQTKGTFQWTIEEEVRFTHWNSDMPGRKPGCVAMRTGIAGGLWDVLKCDEKAKFVCKHWAEGVTHPPKPTTTPEPKCPEDWGASSRTSLCFKLYAKGKHEKKTWFESRDFCRALGGDLASINNKEEQQTIWRLITASGSYHKLFWLGLTYGSPSEGFTWSDGSPVSYENWAYGEPNNYQNVEYCGELKGDPTMSWNDINCEHLNNWICQIQKGQTPKPEPTPAPQDNPPVTEDGWVIYKDYQYYFSKEKETMDNARAFCKRNFGDLVSIQSESEKKFLWKYVNRNDAQSAYFIGLLISLDKKFAWMDGSKVDYVSWATGEPNFANEDENCVTMYSNSGFWNDINCGYPNAFICQRHNSSINATTVMPTMPSVPSGCKEGWNFYSNKCFKIFGFMEEERKNWQEARKACIGFGGNLVSIQNEKEQAFLTYHMKDSTFSAWTGLNDVNSEHTFLWTDGRGVHYTNWGKGYPGGRRSSLSYEDADCVVIIGGASNEAGKWMDDTCDSKRGYICQTRSDPSLTNPPATIQTDGFVKYGKSSYSLMRQKFQWHEAETYCKLHNSLIASILDPYSNAFAWLQMETSNERVWIALNSNLTDNQYTWTDKWRVRYTNWAADEPKLKSACVYLDLDGYWKTAHCNESFYFLCKRSDEIPATEPPQLPGRCPESDHTAWIPFHGHCYYIESSYTRNWGQASLECLRMGSSLVSIESAAESSFLSYRVEPLKSKTNFWIGLFRNVEGTWLWINNSPVSFVNWNTGDPSGERNDCVALHASSGFWSNIHCSSYKGYICKRPKIIDAKPTHELLTTKADTRKMDPSKPSSNVAGVVIIVILLILTGAGLAAYFFYKKRRVHLPQEGAFENTLYFNSQSSPGTSDMKDLVGNIEQNEHSVI"}},
  "experiment_in_all_cases": "glycan array binding signal (z-score within array); higher = stronger binding",
  "details_in_all_cases": "glycan notation: IUPAC condensed, linker removed",
  "key": {"[1]": {"molecular_target": "Gal(b1-3)[Fuc(a1-4)]GlcNAc(b1-3)Gal(b1-4)[Fuc(a1-3)]GlcNAc", "how_it_was_run": "(§1)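 The binding signal is a Z-score computed within each array. Data were drawn from 3228 arrays in the Consortium for Functional Glycomics database, restricted to those with a known protein sequence. Scores were averaged over arrays of the same protein sequence at different concentrations or buffers, and over linkers, and negative values can be taken as non-binding.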"}, "[2]": {"molecular_target": "Gal(b1-3)[GlcNAc(b1-6)]GalNAc", "how_it_was_run": "as §1"}, "[3]": {"molecular_target": "Gal(b1-3)[Neu5Ac(a2-6)]GalNAc", "how_it_was_run": "as §1"}, "[4]": {"molecular_target": "Gal(b1-3)[Neu5Ac(a2-6)]GlcNAc(b1-6)Gal(b1-4)Glc", "how_it_was_run": "as §1"}, "[5]": {"molecular_target": "Gal(b1-3)[Neu5Ac(b2-6)]GalNAc", "how_it_was_run": "as §1"}, "[6]": {"molecular_target": "Gal(b1-4)GalNAc(a1-3)[Fuc(a1-2)]Gal(b1-4)GlcNAc", "how_it_was_run": "as §1"}, "[7]": {"molecular_target": "Gal(b1-4)GalNAc(b1-3)[Fuc(a1-2)]Gal(b1-4)GlcNAc", "how_it_was_run": "as §1"}, "[8]": {"molecular_target": "Gal(b1-4)Glc", "how_it_was_run": "as §1"}, "[9]": {"molecular_target": "Gal(b1-4)Glc6S", "how_it_was_run": "as §1"}, "[10]": {"molecular_target": "Gal(b1-4)GlcNAc", "how_it_was_run": "as §1"}, "[11]": {"molecular_target": "Gal(b1-4)GlcNAc(b1-2)Man(a1-3)[Gal(b1-4)GlcNAc(b1-2)Man(a1-6)]Man(b1-4)GlcNAc(b1-4)GlcNAc", "how_it_was_run": "as §1"}, "[12]": {"molecular_target": "Gal(b1-4)GlcNAc(b1-3)Gal(b1-4)Glc", "how_it_was_run": "as §1"}, "[13]": {"molecular_target": "Gal(b1-4)GlcNAc(b1-3)Gal(b1-4)GlcNAc", "how_it_was_run": "as §1"}, "[14]": {"molecular_target": "Gal(b1-4)GlcNAc(b1-3)Gal(b1-4)GlcNAc(b1-3)Gal(b1-4)GlcNAc", "how_it_was_run": "as §1"}, "[15]": {"molecular_target": "Gal(b1-4)GlcNAc(b1-3)Gal(b1-4)[Fuc(a1-3)]GlcNAc(b1-3)Gal(b1-4)[Fuc(a1-3)]GlcNAc", "how_it_was_run": "as §1"}, "[16]": {"molecular_target": "Gal(b1-4)GlcNAc(b1-3)GalNAc", "how_it_was_run": "as §1"}, "[17]": {"molecular_target": "Gal(b1-4)GlcNAc(b1-3)[Gal(b1-4)GlcNAc(b1-6)]GalNAc", "how_it_was_run": "as §1"}, "[18]": {"molecular_target": "Gal(b1-4)GlcNAc(b1-6)Gal(b1-4)GlcNAc(b1-6)GalNAc", "how_it_was_run": "as §1"}, "[19]": {"molecular_target": "Gal(b1-4)GlcNAc(b1-6)GalNAc", "how_it_was_run": "as §1"}, "[20]": {"molecular_target": "Gal(b1-4)GlcNAc(b1-6)[Gal(b1-3)]GalNAc", "how_it_was_run": "as §1"}, "[21]": {"molecular_target": "Gal3S(b1-3)GalNAc", "how_it_was_run": "as §1"}, "[22]": {"molecular_target": "Gal3S(b1-3)GlcNAc", "how_it_was_run": "as §1"}, "[23]": {"molecular_target": "Gal3S(b1-3)[Fuc(a1-4)]GlcNAc", "how_it_was_run": "as §1"}, "[24]": {"molecular_target": "Gal3S(b1-4)Glc", "how_it_was_run": "as §1"}, "[25]": {"molecular_target": "Gal3S(b1-4)Glc6S", "how_it_was_run": "as §1"}, "[26]": {"molecular_target": "Gal3S(b1-4)GlcNAc", "how_it_was_run": "as §1"}, "[27]": {"molecular_target": "Gal3S(b1-4)GlcNAc6S", "how_it_was_run": "as §1"}, "[28]": {"molecular_target": "Gal3S6S(b1-4)GlcNAc", "how_it_was_run": "as §1"}, "[29]": {"molecular_target": "Gal3S6S(b1-4)GlcNAc6S", "how_it_was_run": "as §1"}, "[30]": {"molecular_target": "Gal4S(b1-4)GlcNAc", "how_it_was_run": "as §1"}, "[31]": {"molecular_target": "Gal4S6S(b1-4)GlcNAc", "how_it_was_run": "as §1"}, "[32]": {"molecular_target": "Gal6S(b1-4)Glc", "how_it_was_run": "as §1"}, "[33]": {"molecular_target": "Gal6S(b1-4)Glc6S", "how_it_was_run": "as §1"}, "[34]": {"molecular_target": "Gal6S(b1-4)GlcNAc", "how_it_was_run": "as §1"}, "[35]": {"molecular_target": "GalNAc(a1-3)Gal", "how_it_was_run": "as §1"}, "[36]": {"molecular_target": "GalNAc(a1-3)GalNAc", "how_it_was_run": "as §1"}, "[37]": {"molecular_target": "GalNAc(b1-3)Gal(a1-4)Gal(b1-4)GlcNAc", "how_it_was_run": "as §1"}, "[38]": {"molecular_target": "GalNAc(b1-3)GalNAc", "how_it_was_run": "as §1"}, "[39]": {"molecular_target": "GalNAc(b1-4)GlcNAc", "how_it_was_run": "as §1"}, "[40]": {"molecular_target": "Glc(a1-4)Glc", "how_it_was_run": "as §1"}, "[41]": {"molecular_target": "Glc(a1-6)Glc(a1-6)Glc", "how_it_was_run": "as §1"}, "[42]": {"molecular_target": "Glc(b1-4)Glc", "how_it_was_run": "as §1"}, "[43]": {"molecular_target": "Glc(b1-6)Glc", "how_it_was_run": "as §1"}, "[44]": {"molecular_target": "GlcA(b1-3)Gal", "how_it_was_run": "as §1"}, "[45]": {"molecular_target": "GlcA(b1-6)Gal", "how_it_was_run": "as §1"}},
  "note": "This is one part of the list.",
  "data": [
    {"binder": "B1", "values": [
      {"measurement": "glycan array binding signal (z-score)", "setting": "[1]", "result": -0.37},
      {"measurement": "glycan array binding signal (z-score)", "setting": "[2]", "result": -0.434},
      {"measurement": "glycan array binding signal (z-score)", "setting": "[3]", "result": -0.404},
      {"measurement": "glycan array binding signal (z-score)", "setting": "[4]", "result": -0.433},
      {"measurement": "glycan array binding signal (z-score)", "setting": "[5]", "result": -0.418},
      {"measurement": "glycan array binding signal (z-score)", "setting": "[6]", "result": -0.343},
      {"measurement": "glycan array binding signal (z-score)", "setting": "[7]", "result": -0.406},
      {"measurement": "glycan array binding signal (z-score)", "setting": "[8]", "result": -0.419},
      {"measurement": "glycan array binding signal (z-score)", "setting": "[9]", "result": -0.34},
      {"measurement": "glycan array binding signal (z-score)", "setting": "[10]", "result": -0.431},
      {"measurement": "glycan array binding signal (z-score)", "setting": "[11]", "result": -0.445},
      {"measurement": "glycan array binding signal (z-score)", "setting": "[12]", "result": -0.427},
      {"measurement": "glycan array binding signal (z-score)", "setting": "[13]", "result": -0.424},
      {"measurement": "glycan array binding signal (z-score)", "setting": "[14]", "result": -0.466},
      {"measurement": "glycan array binding signal (z-score)", "setting": "[15]", "result": 0.283},
      {"measurement": "glycan array binding signal (z-score)", "setting": "[16]", "result": -0.448},
      {"measurement": "glycan array binding signal (z-score)", "setting": "[17]", "result": -0.437},
      {"measurement": "glycan array binding signal (z-score)", "setting": "[18]", "result": -0.253},
      {"measurement": "glycan array binding signal (z-score)", "setting": "[19]", "result": -0.446},
      {"measurement": "glycan array binding signal (z-score)", "setting": "[20]", "result": -0.446},
      {"measurement": "glycan array binding signal (z-score)", "setting": "[21]", "result": 3.15},
      {"measurement": "glycan array binding signal (z-score)", "setting": "[22]", "result": 3.4},
      {"measurement": "glycan array binding signal (z-score)", "setting": "[23]", "result": 3.07},
      {"measurement": "glycan array binding signal (z-score)", "setting": "[24]", "result": 3.67},
      {"measurement": "glycan array binding signal (z-score)", "setting": "[25]", "result": 3.45},
      {"measurement": "glycan array binding signal (z-score)", "setting": "[26]", "result": 3.27},
      {"measurement": "glycan array binding signal (z-score)", "setting": "[27]", "result": 3.5},
      {"measurement": "glycan array binding signal (z-score)", "setting": "[28]", "result": 3.33},
      {"measurement": "glycan array binding signal (z-score)", "setting": "[29]", "result": 3.58},
      {"measurement": "glycan array binding signal (z-score)", "setting": "[30]", "result": 3.33},
      {"measurement": "glycan array binding signal (z-score)", "setting": "[31]", "result": -0.344},
      {"measurement": "glycan array binding signal (z-score)", "setting": "[32]", "result": -0.344},
      {"measurement": "glycan array binding signal (z-score)", "setting": "[33]", "result": -0.082},
      {"measurement": "glycan array binding signal (z-score)", "setting": "[34]", "result": 1.55},
      {"measurement": "glycan array binding signal (z-score)", "setting": "[35]", "result": -0.408},
      {"measurement": "glycan array binding signal (z-score)", "setting": "[36]", "result": -0.392},
      {"measurement": "glycan array binding signal (z-score)", "setting": "[37]", "result": -0.342},
      {"measurement": "glycan array binding signal (z-score)", "setting": "[38]", "result": -0.413},
      {"measurement": "glycan array binding signal (z-score)", "setting": "[39]", "result": -0.438},
      {"measurement": "glycan array binding signal (z-score)", "setting": "[40]", "result": -0.438},
      {"measurement": "glycan array binding signal (z-score)", "setting": "[41]", "result": -0.397},
      {"measurement": "glycan array binding signal (z-score)", "setting": "[42]", "result": -0.406},
      {"measurement": "glycan array binding signal (z-score)", "setting": "[43]", "result": -0.438},
      {"measurement": "glycan array binding signal (z-score)", "setting": "[44]", "result": 0.253},
      {"measurement": "glycan array binding signal (z-score)", "setting": "[45]", "result": 0.028}
    ]}
  ]
}
